Measurements published in PubChem BioAssay AID1240 (Sanford-Burnham Center for Chemical Genomics, 2008).
Hit rate of the full screen: of about 50,000 compounds, about 800 (1.6%) showed an effect of 50% or more. This is one part of the list.

These compounds were tested against Bcl-2-like protein 10 (Homo sapiens) (UniProt Q9HD36) (assay: TR3 peptide-Bcl-B binding displacers, biochemical primary FP assay, phenotype converters (AID 1240;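 also: 0% = Bcl-B with tracer peptide and DMSO and 100% = tracer peptide lacking Bcl-B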)). Settings: GST-Bcl-B / FITC-TR3 peptide fluorescence polarization; stronger effect = higher value; compound at 3.75 mg/L.
UniProt Q9HD36, sequence (Q9HD36 whole entry, looked up): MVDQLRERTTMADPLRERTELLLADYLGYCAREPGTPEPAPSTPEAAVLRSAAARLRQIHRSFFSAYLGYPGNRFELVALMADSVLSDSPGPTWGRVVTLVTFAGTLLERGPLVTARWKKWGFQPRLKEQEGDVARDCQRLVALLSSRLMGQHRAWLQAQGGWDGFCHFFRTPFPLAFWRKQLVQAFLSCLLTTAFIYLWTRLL
With `CC(/C=N/NC(=O)c1cc(C)[nH]n1)=C\c1ccccc1` the displacement was -1.9%. For `COc1ccc(C2C(C(C)=O)=C(O)C(=O)N2CC2CCCO2)cc1OC` (configuration not stated), the displacement was 1.3%. `O=C(Nc1ccc2c(c1)OCO2)c1ccc(I)cc1` gave a displacement of 12.7%. With `CCCCC1(C(=O)O)CC(C)=C(C)CC1C(=O)O` (configuration not stated) the displacement was 14%. In the case of `O=C(NC(=S)NCc1cccnc1)c1cccs1`, the displacement is reported as 7.3%. Work on `COc1ccc(NC(=O)CN(c2ccc(OC)cc2)S(C)(=O)=O)cc1` yielded a displacement of 6.2%. Work on `COc1cccc(OCCn2cc(/C=N/n3cnnc3)c3ccccc32)c1` yielded a displacement of -1.9%. In the case of `CCN1C(=O)/C(=C/c2cc([N+](=O)[O-])ccc2OC)SC1=S`, the displacement is reported as 48.1%. Compound `COc1cccc(C(=O)/C=C/c2ccccc2Cl)c1` has a displacement of -5.8%. For `Cc1ccccc1-c1cc(C(=O)NCCc2ccccc2)c2ccccc2n1`, the displacement was -6.9%. With `O=C(Nc1ccc(Cl)cc1)C1C2/C=C\CCCCC21` (configuration not stated) the displacement was -6.4%. Compound `O=C(NCC1(c2ccccc2)CCOCC1)c1cccc(Cl)c1` has a displacement of -3.7%. `COc1ccc(-n2c(C)c(C(C)=O)c3cc(OC(=O)c4ccccc4OC(C)=O)ccc32)cc1` showed a displacement of -5.3%. `FC(F)(F)C(=C(NC(=S)n1cnc2ccccc21)C(F)(F)C(F)(F)F)C(F)(F)F` showed a displacement of 8.7%. Compound `CC(C)NC(=O)C(=O)NN=C1CCCC1` has a displacement of -15.3%. With `COc1ccc(C2Nc3ccccc3NC3=C2C(=O)CC(c2ccc(OC)c(OC)c2)C3)cc1` (configuration not stated) the displacement was 13.9%. `CNC(=O)c1cc(-c2ccc(OC)cc2)nc2ccccc12` was tested, and the displacement was -3.2%. `Cc1cc(C)n(C(=O)c2ccc(F)cc2)n1` gave a displacement of -11%. In the case of `CCSc1nnc(NC(=O)c2cnccn2)s1`, the displacement is reported as 4.6%. In the case of `O=C(Nc1ccc2c(c1)oc1ccccc12)c1ccc(I)cc1`, the displacement is reported as 37.8%. With `Nc1nnc(SCC(=O)N2CCc3ccccc3C2)s1` the displacement was 8.3%. `COc1ccc(/C=C/C(=O)Nc2nc(C)c(C)s2)cc1OC` gave a displacement of 47.5%. Compound `O=C1C(=Cc2c(NCCO)nc3ccccn3c2=O)SC(=S)N1Cc1ccco1` has a displacement of 16.4%. In the case of `COc1cc(OC)c(OC)cc1/C=N/NC(=O)CCc1c(C)n[nH]c1C`, the displacement is reported as -4%. With `C/C(=N\Nc1nc(C)cc(=O)[nH]1)c1ccccc1` the displacement was -15.2%. Compound `CCN(CC)S(=O)(=O)c1ccc(OC)c(OC)c1` has a displacement of -4.4%. In the case of `Cc1ccccc1NC(=O)CSc1ncccn1`, the displacement is reported as -5.6%. With `CCOc1cc(C2NC(=S)NC(C)=C2C(=O)Nc2ccc(C)cc2)ccc1O` (configuration not stated) the displacement was 2.6%. In the case of `CC(Cc1ccccc1)N=C1NS(=O)(=O)c2ccccc21` (configuration not stated), the displacement is reported as -2.2%. For `CCN(CC)c1ccc(/C=C2/C=C(c3ccc(C)cc3)OC2=O)cc1`, the displacement was 6.1%. In the case of `O=C(Nc1ccc(Cl)c(Cl)c1)C1C2/C=C\CCCCC21` (configuration not stated), the displacement is reported as -12.8%. `O=C(Nc1cccnc1)c1cc2ccccc2o1` was tested, and the displacement was 8.9%. Compound `CC1=C(C(=O)OC2CCCCCC2)C(c2ccc3c(c2)OCO3)C2=C(CCCC2=O)N1` (configuration not stated) has a displacement of -4.9%. With `O=c1[nH]c(/C=C/c2ccc(N3CCOCC3)c([N+](=O)[O-])c2)c([N+](=O)[O-])c(=O)[nH]1` the displacement was 2.1%. For `O=C(Cc1ccccc1)Nc1ccc(-c2nc3cc(Cl)ccc3o2)cc1`, the displacement was -2.5%. With `Cc1cc(N2C(=O)NC(=O)/C(=C\c3ccsc3)C2=O)ccc1Br` the displacement was -9.6%. `COc1ccccc1CNC(=O)Cc1ccccc1[N+](=O)[O-]` showed a displacement of -1.7%. `O=C(NCCc1ccccc1)C(=O)Nc1cccc(Cl)c1Cl` was tested, and the displacement was 8.1%. In the case of `COC(=O)c1cccc(NC(=O)C23CC4CC(C2)CC(C(=O)Nc2cccc(C(=O)OC)c2)(C4)C3)c1`, the displacement is reported as 13.4%. `Cc1c(Cl)cccc1NC(=O)/C(C#N)=C/c1ccc(N2CCOCC2)o1` showed a displacement of -99.2%. `CCOc1ccc(-c2csc(/C(C#N)=C/c3ccco3)n2)cc1` gave a displacement of -6%. `CC(C)(C)N1C(=O)c2ccc(C(=O)Nc3ccc(C(=O)O)cc3)cc2C1=O` gave a displacement of 11.6%. Compound `O=C(COc1ccccc1[N+](=O)[O-])Nc1ccc2oc(-c3ccccc3Br)nc2c1` has a displacement of 5.2%. Compound `Cc1c(Cc2ccccc2)c(-n2ccnc2)n2c(nc3ccccc32)c1C#N` has a displacement of 5.2%. With `COc1cccc(/C=C2\SC(=O)N(c3ccc(Cl)cc3)C2=O)c1O` the displacement was -2.1%. Work on `COc1ccc(-c2nc3cc(NC(C)=O)ccc3o2)cc1` yielded a displacement of 0.3%. For `COc1ccc(-c2nn(-c3ccccc3)cc2/C=C/C(=O)O)cc1`, the displacement was 14.2%. `O=C(c1ccccc1)N1CC(=O)N2CCc3ccccc3C2C1` (configuration not stated) showed a displacement of 1%. With `O=C(c1ccccc1)N1CCN(c2nc(-c3ccccc3)c3cc(Cl)ccc3n2)CC1` the displacement was 10.6%. In the case of `COc1ccc2c(c1)-c1c(sn(-c3cc(C)cc(C)c3)c1=S)C(C)(C)N2`, the displacement is reported as -4.3%. Compound `O=Cc1ccc(/C=C2/SC(=S)N(c3cccc(Cl)c3)C2=O)cc1` has a displacement of 1.3%. Work on `CCOc1ccc(NC(=O)CN(c2ccc(C(C)C)cc2)S(=O)(=O)c2ccccc2)cc1` yielded a displacement of 0.3%. Compound `O=C(Nc1ccc(NC(=O)c2ccc(-c3ccc(Cl)cc3Cl)o2)cc1)c1ccccc1` has a displacement of 83.5%. In the case of `O=C1CC(c2ccc(Cl)cc2)c2ccc3ccccc3c2N1` (configuration not stated), the displacement is reported as 7.9%. Work on `COc1ccc(N2CC(C(=O)N/N=C/c3cccs3)CC2=O)cc1` (configuration not stated) yielded a displacement of 65%. `COc1ccc(/C=C2/NC(=S)NC2=O)cc1OCc1ccc(Cl)cc1Cl` showed a displacement of 4.4%. In the case of `O=C(c1sc2ccccc2c1Cl)N1CCc2ccccc2C1`, the displacement is reported as 14.2%. Work on `CC(C)CN1C(=O)/C(=C/c2ccc(F)cc2)SC1=S` yielded a displacement of 19.6%. With `CC1CCc2c(sc(N)c2C(=O)Nc2ccccc2Cl)C1` (configuration not stated) the displacement was -31.1%. Work on `O=C1CC(=O)N(c2ccc3ccccc3c2)C(=S)N1` yielded a displacement of -9.9%. `CCOC(=O)c1cnc2c(ccc3ccccc32)c1Cl` gave a displacement of 11%. Compound `O=C1/C(=C/c2cccc3ccccc23)SC(=S)N1Cc1ccco1` has a displacement of 79.2%. `O=C(NCC(c1ccccc1)c1ccccc1)Nc1ccc(Cl)cc1` showed a displacement of 2.6%. `CCN1CCN(Cc2c(C)[nH]c3c(Cl)cccc3c2=O)CC1` showed a displacement of -5.8%. For `NNC(=O)CN1C(CN2CCOCC2)=Nc2ccc(Br)cc2C1c1ccccc1` (configuration not stated), the displacement was -14.1%. With `Cc1ccc(CN2CCN(C3CCCCC3)CC2)cc1` the displacement was -11.3%. With `O=C(NCC1CCCO1)c1ccc(Cl)cc1Cl` (configuration not stated) the displacement was -6%. Work on `COc1ccc(CCNC(=S)Nc2ccc(OC)cc2)cc1` yielded a displacement of -9.1%. With `COc1ccccc1OCC(=O)NC(C)C(=O)O` (configuration not stated) the displacement was 9.1%. Compound `COC(=O)C1=C(C)NC2=C(C(=O)c3ccccc32)C1c1cccs1` (configuration not stated) has a displacement of 15%. `Cc1ccc(C(=O)Nc2sc3c(c2C(=O)N2CCC(C(N)=O)CC2)CCCC3)cc1` showed a displacement of -1.1%. Work on `O=C(Nc1ccc(F)cc1F)c1cc2ccccc2oc1=O` yielded a displacement of -7.9%.
